B1: LINE1-mini (parent)
chain: GGCAGAGCUCAACACAGCGUGGCAAAGUGGCUGUGGCUAGACUGCC

Read counts are not given, so values of variants with three or more changes are uncertain.

In this data set the parent is B1. Briefly: self-cleavage, relative activity (ratio to wild type); higher = more cleavage; in vitro, sequencing; the parent is a self-cleaving ribozyme.
Take C3A A4U U9C: the self-cleavage came out at 0.04.
With G2U C13A G17U U20G G21A G44A, the self-cleavage stood at 0.02.
As for G2U G7U C10G C15G A26U, the self-cleavage is 0.01.
As for G2U C15U C18A G27A G33U G36A, the self-cleavage worked out at 0.
Regarding G2U C18U C45U, the self-cleavage is 0.02.
Under G2U U28G C31G C37U C45G stands 0.01; under G2U G27U G30U, 0.09.
Under C3A A4C G29U G44C stands 0.13.
With G2U C13A U20C G33U, the self-cleavage was 0.12.
Take G2U U9G G22A: the self-cleavage came to 0.
On to G2U G5U G27A G30U, for which the self-cleavage was determined as 0.01.
Regarding G2U C18G C23A U38C, the self-cleavage worked out at 0.01.
Turning to G2U G29A G30A C31G U38A, the self-cleavage stood at 0.
For G2U U32G U43A, the self-cleavage worked out at 0.05.
In the case of G2U C15U G17U C18U U20C, the self-cleavage was found to be 0.03.
G2U C15U C45U: the self-cleavage stood at 0.02.
In the case of G2U C13G A24U C45A C46U, the self-cleavage came out at 0.02.
For G2U U9G G19U U28G U43C, the self-cleavage amounted to 0.02.
Turning to G2U G22C U38A, the self-cleavage stood at 0.05.
The value for G2U G19U G30A was 0.04; that for G2U U28A G40C was 0.1; that for G2U G5U A16C G27A U32G G36C was 0.04.
The value for G2U C23A C37A U38A was 0.03; that for G2U G5A G35A was 0.02; that for G2U U9C A24C A41C G44A was 0.01.
G2U C18U A39U G44C: the self-cleavage turned out to be 0.01.
The value for G2U G21C U32C was 0.02; that for G2U C15A C23U G29U was 0.01; that for C3A A4G A26G was 0.05.
On to G2U G7U U32A, for which the self-cleavage worked out at 0.04.
On to G2U G21U A24G, for which the self-cleavage turned out to be 0.05.
As for C3A A4G G19U U20G C46U, the self-cleavage came out at 0.63.
For the variant G2U G7A A26U U32C, the self-cleavage was 0.07.
The value for G2U G7A G29A C37G G40A was 0.02.
As to G2U C23A U32C, the self-cleavage was determined as 0.03.
For G2U G21C A25C G29A G30A C31U C37A, the self-cleavage was 0.02.
Under G2U G17A G35U G44C stands 0.03; under G2U G27A C46G, 0.08; under G2U G5C G40A, 0.02.
As for G2U G7U U20A G21A G27A, the self-cleavage was found to be 0.06.
For the variant G2U G7A G22A A26G U34G C46A, the self-cleavage worked out at 0.05.
G2U U9G G21A C23U G29A: the self-cleavage worked out at 0.02.
Take G2U U20C U34C G40A: the self-cleavage amounted to 0.04.
As for G2U C18G A25C, the self-cleavage worked out at 0.06.
The value for G2U U28G G36A C42U was 0.02; that for G2U G7A C31A A39G C46A was 0.
Under G2U C15A G19C stands 0.02; under G2U C15U U28G, 0.11; under C3A A4G G7U U9A C23A, 0.16.
Turning to G2U G7C U28A U38C C45A, the self-cleavage worked out at 0.02.
With G2U G17U C42A, the self-cleavage worked out at 0.01.
Consider G2U G36U U38C, for which the self-cleavage came out at 0.
For the variant G2U G7U A12U A14U U20G, the self-cleavage was 0.
In the case of C3A A4U U9G C42U C46U, the self-cleavage was determined as 0.09.
G2U C15A C23U: the self-cleavage stood at 0.13.
Turning to G2U U32C G33C, the self-cleavage came to 0.03.
The value for G2U G17U G19C G27U G40A C42G G44C was 0.05; that for G2U G19C G30A G36U was 0.06.
Consider G2U C13U G22U, for which the self-cleavage came out at 0.01.
Regarding G2U G5C G33U, the self-cleavage came to 0.01.
Consider G2U G22U G29U G30U U32G G44U, for which the self-cleavage was determined as 0.03.
Regarding G2U C15A U20A G29C G44A, the self-cleavage is 0.01.
Turning to G2U G19C G27C C42A, the self-cleavage is 0.01.
For G2U G30A U34G U43A G44A, the self-cleavage was 0.03.
In the case of G2U C15U C18G G21U C23G, the self-cleavage amounted to 0.02.
Consider C3A A4U C13A C18G, for which the self-cleavage is 0.2.
Take G2U G5U A14C C15U: the self-cleavage is 0.01.
With G2U C37U A39C G44A, the self-cleavage amounted to 0.01.
Under G2U C31U A39G C42G stands 0.02; under C3A A4U G17C A25G A41G C42G, 0.06; under G2U U34G A39G, 0.
On to C3A A4C A12U U20A C23U, for which the self-cleavage turned out to be 0.01.
Under G2U G27U G30U C37U G40U C45A stands 0.01; under G2U G17A G21U A41C, 0; under G2U U9G G17U G29A, 0.
As for C3A A4U C23A U32G G40U C46G, the self-cleavage was determined as 0.06.
Regarding G2U C15A G29U G33C G36A A39C, the self-cleavage amounted to 0.01.
As to G2U C15A G22A, the self-cleavage came to 0.
As for C3A A4C G7C U32G G36U, the self-cleavage worked out at 0.03.
As to G2U G21C C37U G40A, the self-cleavage is 0.01.
Regarding G2U G22U C37A, the self-cleavage was 0.04.
In the case of G2U G22C C31A G36C G40A G44A, the self-cleavage turned out to be 0.01.
As to G2U G36U C42G C45A, the self-cleavage stood at 0.01.
With G2U U9G A14G C45A C46A, the self-cleavage is 0.01.
As for G2U G21A C37A, the self-cleavage is 0.07.
As to C3A A4U C8G U9C A12C C15G G35A G40C, the self-cleavage stood at 0.
With G2U U34G G35A G40C, the self-cleavage was 0.
As to G2U G17U G21C A26G C42A, the self-cleavage was 0.08.
For the variant G2U G5U G19U, the self-cleavage came out at 0.02.
Regarding G2U G5U C23U, the self-cleavage was 0.02.
Regarding G2U U9G A11C C42A, the self-cleavage is 0.
As for G2U G7C G30A, the self-cleavage turned out to be 0.06.
Regarding G2U G7U U9G, the self-cleavage was determined as 0.07.
Consider G2U G21U A26G, for which the self-cleavage came to 0.01.
The value for G2U U9C C15U was 0; that for G2U G5A G29A C31A G35C G36A U38C C45A was 0.02.
Take G2U U9C G30U: the self-cleavage is 0.01.
As to C3A A4G G17A U20A C42G, the self-cleavage turned out to be 0.06.
The value for G2U G7A G36U A41G was 0.15; that for G2U G7C A16G G19A C31A was 0.03.
Regarding G2U U9A G19U G21U G22A, the self-cleavage was found to be 0.01.
The value for G2U G7U G22A G29C was 0.02.
The value for G2U U9C A11C G35A C42A C45A was 0; that for G2U G17U G27A C37U C45U was 0.05; that for G2U G19A A39C U43A was 0.04.
G2U U9A C15G: the self-cleavage was 0.01.
For the variant C3A A4C C46G, the self-cleavage was 1.14.
Turning to G2U G7U A16U U34A, the self-cleavage stood at 0.
Under G2U G5A A12C A14C A25G U28A stands 0.01.
On to G2U U9C G22U, for which the self-cleavage came out at 0.01.
For the variant G2U G5U U9G G29C, the self-cleavage turned out to be 0.01.
As for G2U C15U G36A C37A, the self-cleavage was determined as 0.01.
The value for G2U C13A C45G was 0.04; that for G2U U9C U32G was 0.01; that for G2U G5U U9G G40A was 0.
As for G2U U9G G21C A24G A25C G30C A39U, the self-cleavage is 0.01.
Under G2U C13U G44A stands 0.01; under G2U G5U A25U C37U, 0.02.
With G2U G19C U32A A41U, the self-cleavage came out at 0.03.
G2U G21A C23G: the self-cleavage was found to be 0.05.
As for G2U C18A A41G, the self-cleavage was found to be 0.
As for G2U U34A U43C, the self-cleavage turned out to be 0.03.
For G2U G19C G29U G30U U34A A39G, the self-cleavage amounted to 0.01.
As for G2U G29U G33A, the self-cleavage amounted to 0.05.
Under G2U U9C A11G C23A stands 0.01; under G2U G17U A41C, 0.06.
The value for G2U C18G U28A C31A G33A was 0.01.
The value for G2U C23G C42G was 0.08; that for G2U G7A C13U G17A was 0.06.
In the case of G2U C15A G17C G22U G33U, the self-cleavage stood at 0.01.
Regarding G2U C15G U28A A41G, the self-cleavage is 0.02.
Under G2U G17U C18A A24U U32C stands 0.04; under G2U G5U G22U U34C G44A, 0.06.
Take G2U C15A U20C: the self-cleavage is 0.04.
Take G2U G19C G21A A25U A41G C46G: the self-cleavage was determined as 0.01.
With G2U U9G U32A, the self-cleavage is 0.
In the case of G2U C18A G44A, the self-cleavage was determined as 0.01.
Under C3A A4U G35C stands 0.05; under G2U C13G C23G G27C, 0.01; under C3A A4C A25C A41G, 0.13.
On to G2U G5U A11U, for which the self-cleavage turned out to be 0.05.
For the variant G2U C23A G29C U32G C46A, the self-cleavage turned out to be 0.11.
The value for C3A A4U U34G was 0; that for G2U G5A C45U was 0.03; that for C3A A4U A6U A16C G21A G33U was 0.13.
Regarding G2U G27C G35A, the self-cleavage turned out to be 0.07.
Consider G2U G7U G17U G19C, for which the self-cleavage is 0.03.
Turning to G2U U9G C10U C18U, the self-cleavage worked out at 0.02.
Turning to G2U U38G G40A, the self-cleavage turned out to be 0.02.
G2U G5C A11C A24G C37A C42U: the self-cleavage is 0.
In the case of G2U G36C G40U, the self-cleavage is 0.19.
Regarding G2U G5A C8G C13U G21U C42A C45G, the self-cleavage came to 0.03.
G2U G17A G21U G27U U38A: the self-cleavage was found to be 0.01.
Consider C3A A4U A6G C18A A24G, for which the self-cleavage was determined as 0.12.
On to G2U G5U C31A C46A, for which the self-cleavage was determined as 0.02.
On to C3A A4U A12C G19C C23A C31G U34C A39C, for which the self-cleavage was determined as 0.
With G2U G17A A39U, the self-cleavage stood at 0.02.
Turning to G2U G29A C31U, the self-cleavage is 0.05.
As for G2U G19A U32A, the self-cleavage was 0.01.
For G2U G19A U32G, the self-cleavage stood at 0.01.
G2U G5A G22C C31U: the self-cleavage worked out at 0.02.
G2U C23U C31A G33C: the self-cleavage was determined as 0.02.
For the variant C3A A4G A26U C31G, the self-cleavage came out at 0.07.
Turning to G2U G22A A26C U28G U34C G40U, the self-cleavage is 0.01.
Take C3A A4C G5A G35A: the self-cleavage stood at 0.12.
For G2U G7C A14U G17A, the self-cleavage was found to be 0.12.
Take G2U C13U G33C: the self-cleavage came out at 0.02.

Source of the values: the RNAGym collection of RNA variant scans (doi:10.7554/elife.90254).
